# Source: PMC4336329 (PLoS ONE, 2015)
# About 14,000 (4.5%) of roughly 310,000 compounds showed an effect of 50% or more. The effect is printed as a negative number. The list shows a part of the results.
# Biological target: human ether-à-go-go-related gene (hERG) potassium channel (human, UniProt Q12809)
# Test: primary screen, population patch clamp on CHO cells stably expressing hERG
# 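Also: peak tail current of the secondary pulse compared with the same well before compound.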
# Sequence of human ether-à-go-go-related gene (hERG) potassium channel (Q12809 whole entry, looked up): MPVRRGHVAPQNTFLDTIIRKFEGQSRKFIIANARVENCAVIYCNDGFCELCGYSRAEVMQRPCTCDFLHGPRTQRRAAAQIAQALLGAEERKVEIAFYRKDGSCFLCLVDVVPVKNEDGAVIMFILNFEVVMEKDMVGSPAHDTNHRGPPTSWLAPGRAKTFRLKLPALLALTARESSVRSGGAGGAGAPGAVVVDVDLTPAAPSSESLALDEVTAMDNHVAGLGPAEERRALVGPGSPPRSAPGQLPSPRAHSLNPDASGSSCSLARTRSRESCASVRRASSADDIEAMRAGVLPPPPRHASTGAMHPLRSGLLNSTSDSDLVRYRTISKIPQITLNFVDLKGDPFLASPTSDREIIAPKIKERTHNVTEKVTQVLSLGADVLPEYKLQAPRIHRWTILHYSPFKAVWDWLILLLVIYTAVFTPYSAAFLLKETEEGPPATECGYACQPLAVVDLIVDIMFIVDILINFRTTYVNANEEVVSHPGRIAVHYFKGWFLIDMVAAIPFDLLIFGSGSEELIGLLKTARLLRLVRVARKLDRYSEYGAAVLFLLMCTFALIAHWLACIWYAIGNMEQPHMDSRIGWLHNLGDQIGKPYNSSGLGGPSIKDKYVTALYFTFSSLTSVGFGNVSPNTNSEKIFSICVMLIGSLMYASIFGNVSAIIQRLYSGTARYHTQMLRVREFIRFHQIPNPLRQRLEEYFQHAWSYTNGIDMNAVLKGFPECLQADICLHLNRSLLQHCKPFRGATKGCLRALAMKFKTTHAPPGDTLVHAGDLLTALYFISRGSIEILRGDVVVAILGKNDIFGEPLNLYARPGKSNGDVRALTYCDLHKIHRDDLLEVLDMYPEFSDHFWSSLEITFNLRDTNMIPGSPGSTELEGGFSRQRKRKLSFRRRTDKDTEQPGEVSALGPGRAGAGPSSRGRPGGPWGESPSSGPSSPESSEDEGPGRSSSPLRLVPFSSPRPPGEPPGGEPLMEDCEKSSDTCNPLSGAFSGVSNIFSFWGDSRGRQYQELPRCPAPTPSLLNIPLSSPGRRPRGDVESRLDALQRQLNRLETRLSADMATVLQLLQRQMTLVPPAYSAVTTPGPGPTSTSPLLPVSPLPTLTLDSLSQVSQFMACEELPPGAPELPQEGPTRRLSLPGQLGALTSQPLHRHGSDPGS
row,Compound,"hERG current change (%, negative = inhibition) at 10uM [%]"
1,CC(NC(=O)COC(=O)C1(C)CC1(Cl)Cl)c1ccccc1 (stereo not shown),-1.66
2,Cc1ccc(-n2nc3c(=O)n(CCCC(=O)NCCc4ccccc4C)nc(C)c3c2C)cc1,-8.75
3,Cc1ccccc1C(=O)N1CCN(c2ccc(NC(=O)c3ccco3)cc2Cl)CC1,-43.2
4,C=CCn1c(=O)[nH]c2cc(C(=O)N3CC=C(c4ccccc4)CC3)ccc2c1=O,2.22
5,Cc1noc(C)c1CCC(=O)N1CCCC(CCC(=O)NCc2ccc(F)c(F)c2)C1 (stereo not shown),-32
6,Oc1ccc(/C=N/N=C/c2ccc(O)c(O)c2)cc1O,12.5
7,COc1cc(NC(=O)CCCl)cc(-n2cnnn2)c1,5.76
8,CCOC(=O)C1=NN(c2ccc(Cl)cc2)/C(=C/C2=NCCc3cc(OC)c(OC)cc32)S1,8.07
9,CCCCn1c(=O)c(CCC(=O)OCC(=O)NC(C)c2ccccc2)nc2ccccc21 (stereo not shown),-2.2
10,O=C(c1ccco1)N1CCN(C(=O)C2CC(c3ccc(Cl)cc3)=NO2)CC1 (stereo not shown),-76.2
11,Cc1ccc(S(=O)(=O)N2[C@@H](c3ccccc3F)C(C(=O)O)=CC[C@H]2c2cccc(Cl)c2)cc1,21.9
12,Cc1nc(-n2nnc3ccccc32)c2c3c(sc2n1)CCCC3,-50.1
13,C/C(=N\Nc1ccc([N+](=O)[O-])cc1)c1ccco1,4.13
14,COCCCNc1nc(-c2ccc(Cl)cc2)nc2ccccc12,-1.64
15,COc1ccc(C2Nc3ccccc3C(=O)N2Cc2ccccc2)cc1CN1CCOCC1 (stereo not shown),-63.5
16,C/C(=N\NC(=O)C1CC1)c1ccccc1Br,12.9
17,CCCn1c(=O)c(C(=O)Nc2cccc(C)c2)c(O)c2ccccc21,10.2
18,COc1ccc(NC(=O)N2CCN(C(=O)Nc3ccc(OC)cc3)CC2)cc1,6.18
19,Cn1c(SCc2ccccc2Cl)nc2ccccc21,1.78
20,Cc1ccc(-c2ccc(/C=N/N3C(=O)C4C5C=CC(C6CC56)C4C3=O)o2)c([N+](=O)[O-])c1 (stereo not shown),-12.5
21,O=C(O)c1ccn(CSc2cc(Cl)ccc2Cl)n1,5.46
22,C=CCN(C(=O)C1CC(=O)N(C2CCCC2)C1)c1nc(-c2ccc(S(C)(=O)=O)cc2)cs1 (stereo not shown),-47.1
23,CCc1cc(-c2nnc(SCC(=O)NC3CC3)n2C)cs1,3.47
24,CC(C)=CCC/C(C)=C/CC/C(C)=C/CC/C(C)=C/CC1=C(C)C(=O)c2ccccc2C1=O,18.6
25,CCCCOC(=O)c1ccc(NC(=O)c2cnc3n(c2=O)CCS3)cc1,6.32
26,COc1ccc(C(=O)NCCNC(=O)c2cnccn2)cc1OC,14.4
27,CC[C@H](C)C(N)c1cn([C@@H](CC(N)=O)C(=O)N2CCNCC2)nn1 (stereo partly shown),-10.5
28,O=C(O)CSCC(=O)Nc1ccccn1,7.36

row,Compound,"hERG current change (%, negative = inhibition) at 10uM [%]"
1,Cc1cccc(C(=O)OCC(=O)N2CCCC2=O)c1[N+](=O)[O-],-12.7
2,O=C(O)c1cccc(Nc2nc(Nc3ccccc3)nc(N3CCCC3)n2)c1,28
3,Cc1ccc2c(c1)c1c(n2CC(O)CN2CCCCCC2)CCCC1.Cl (stereo not shown),-65.6
4,CCOc1ccc(Br)cc1S(=O)(=O)Nc1cccc(S(=O)(=O)NC2=NCCC2)c1,-4.56
5,Fc1ccccc1NC(=S)N1CCN(c2ccccn2)CC1,8.82
6,CC(C)CC(=O)Nc1ccc(C(=O)CN2C(=O)NC3(CCOc4ccccc43)C2=O)cc1 (stereo not shown),-9.85
7,N#C/C(C(=O)Oc1ccccc1)=C1\C=Cc2ccccc2N1,6.21
8,O=C(N1CCCCCC1)N1CCN(S(=O)(=O)c2ccccc2)CC1,-11.9
9,CCCCCn1c(CCC(=O)Oc2ccccc2OC)nc2c1c(=O)[nH]c(=O)n2CCCC,-8.34
10,COC(=O)c1cc(C(=O)OC)n(Cc2ccc(F)cc2)c1C,-5.66
11,CCCCSc1nc(C(=O)O)cc(=O)[nH]1,-7.8
12,Cc1ccc2nc(SCC(=O)N3CCN(C(=O)c4ccco4)CC3)[nH]c2c1,-35.3
13,COc1ccc(OC)c(C(c2nnnn2Cc2ccccc2)N2CCN(C)CC2)c1.Cl (stereo not shown),3.17
14,CCn1cc2nc(SCC(=O)Nc3ccc(OC)cc3OC)n(Cc3ccc(OC)cc3)c(=O)c2n1,1.42
15,Cc1ccc2[nH]c(=O)c(CN(Cc3nnnn3C3CCCC3)C3CCCCC3)cc2c1,-8.29
16,C=CCOc1c2ccc(C(=O)NCc3ccccc3OC)cc2nn1C,5.24
17,CCOc1ccc(NC(=O)CCCc2cc(-c3ccc(OCC)cc3)on2)cc1,7.77
18,CC(=O)c1cccc(NC(=O)C(OC(=O)c2cccs2)c2ccccc2)c1 (stereo not shown),-4.38
19,CC1CCc2c(sc(NC(=O)c3ccc(Cn4cc([N+](=O)[O-])cn4)o3)c2C#N)C1 (stereo not shown),2.86
20,COc1cccc(C2NC(=O)NC(C)=C2C(=O)OCCSC)c1OC (stereo not shown),11.5
21,O=C(O)C(=O)O.O=S(=O)(c1ccccc1)N1CCN(CC2CC3C=CC2C3)CC1 (stereo not shown),-7.54
22,CCOC(=O)C1CCCN(Cc2c(F)cccc2Cl)C1 (stereo not shown),-11
23,CC(=O)NCCC(=O)Nc1cc(S(=O)(=O)N2CCOCC2)ccc1Oc1ccccc1,-8.45
24,CCN(CC(=O)Nc1ccccc1C(F)(F)F)C(=O)c1ccc(=O)n(Cc2ccccc2)n1,-22
25,O=C(NC(Cc1ccccc1)C(=O)N1CCN(S(=O)(=O)c2ccccc2F)CC1)c1ccccc1 (stereo not shown),12.8
26,Cc1cc(C)nc(/N=c2/ssnc2Cl)c1,-2.38
27,CCOC(=O)c1ccc2nc(NC(=O)c3cccs3)sc2c1,8.13
